# This is one part of the list. These are noisy estimates, calculated here from bound and input reads.
# Target: T1, Pho4 (S. cerevisiae) (UniProt P07270)
# T1 sequence: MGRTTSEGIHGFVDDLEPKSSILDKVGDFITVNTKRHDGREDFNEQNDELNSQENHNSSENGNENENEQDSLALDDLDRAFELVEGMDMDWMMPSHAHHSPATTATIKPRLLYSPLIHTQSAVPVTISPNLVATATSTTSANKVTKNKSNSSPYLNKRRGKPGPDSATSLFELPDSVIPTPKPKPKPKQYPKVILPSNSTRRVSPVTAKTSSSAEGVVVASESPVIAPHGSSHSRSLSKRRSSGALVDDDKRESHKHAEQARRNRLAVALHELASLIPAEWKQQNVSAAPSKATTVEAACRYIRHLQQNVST
# Test: relative binding free energy (BET-seq); higher = weaker binding
# Settings: reference: library average
row,Sequence,relative binding free energy [kcal/mol]
1,AGTTGCACGTGTGATA,0.09
2,ATTGTCACGTGATGGC,0.16
3,GCAGTCACGTGTGGGG,0.14
4,ATGATCACGTGGAGAT,0.12
5,GCTAGCACGTGGGTTT,-0.11
6,GGGATCACGTGTGTTA,0.3
7,TTCGACACGTGTTAGG,0.11
8,TGCTGCACGTGGTTAT,-0.12
9,GTACTCACGTGTGGGA,0.23
10,GTTTGCACGTGAAGTG,0.36
11,CAGAGCACGTGGAGGT,-0.17
12,GTCTTCACGTGTTGGA,0.3
13,ATATGCACGTGGGATG,-0.2
14,GGAATCACGTGTTATG,0.22
15,TAGTTCACGTGAATTT,0.35
16,TTCTTCACGTGAGGTA,0.38
17,TATTACACGTGTAGTT,0.26
18,AGTATCACGTGGTCGC,0.1
19,AGCCTCACGTGTGGTT,0.23
20,AAGGGCACGTGTTCGA,0.01
21,TATGCCACGTGTTCGG,-0.03
22,GTGAGCACGTGGGGAT,-0.14
23,TCGTTCACGTGTAGGT,0.26
24,TAAAGCACGTGATGTA,0.01
25,TTCGTCACGTGATATG,0.17
26,TTTGGCACGTGATAGC,-0.09

row,Sequence,relative binding free energy [kcal/mol]
1,GTATTCACGTGTTATA,0.25
2,CTATGCACGTGTTAGT,-0.09
3,AGGCGCACGTGCGTGG,-0.21
4,ATGGTCACGTGATCTG,0.16
5,TAATACACGTGGGTGT,-0.23
6,AGGGTCACGTGTATCA,0.18
7,GGGTGCACGTGCCAGG,-0.19
8,TGTTTCACGTGTATCG,0.28
9,GTTGTCACGTGTACAT,0.09
10,TGGTTCACGTGCGCAG,0.35
11,CGGGCCACGTGGAGGT,0.05
12,CATATCACGTGTAGGG,0.17
13,GGAAACACGTGTAGTT,-0.01
14,ATGGTCACGTGGTCAA,-0.04
15,GGGAACACGTGAGGTT,0.42
16,GGTTGCACGTGATTAG,0.18
17,TGTATCACGTGTTTAG,0.18
18,CGTAGCACGTGGATAT,0.01
19,ACTTGCACGTGTCTTT,0.09
20,TGGTTCACGTGTGAAC,0.21
21,AACTACACGTGGTGGG,-0.02
22,GAATGCACGTGCTGTT,-0.05
23,ATTGACACGTGCCGGG,-0.06
24,GGTATCACGTGTATGT,0.22
25,GATGACACGTGGGGCG,0.07
26,TGAGTCACGTGGAATG,0.23

row,Sequence,relative binding free energy [kcal/mol]
1,TTTCGCACGTGTAGTA,-0.01
2,TTGGTCACGTGACGGC,0.38
3,TGGCGCACGTGCTTGT,-0.23
4,TAGTGCACGTGAGTTT,0.23
5,CGTAACACGTGGAGTT,-0.01
6,GTGAACACGTGCGGTA,0.06
7,AAGGGCACGTGAATGG,0.17
8,TATTACACGTGAGTGT,0.24
9,TTATACACGTGATATG,0.07
10,TTCAGCACGTGAATTG,0.13
11,GCCTCCACGTGGGGGG,-0.02
12,AGGTTCACGTGGAGGG,0.26
13,TCGCTCACGTGTGTTT,0.19
14,TGTCTCACGTGAATGT,0.26
15,ATTTCCACGTGGTAGT,-0.15
16,GGGGACACGTGTCTGT,0.15
17,GGTAGCACGTGGCGGA,-0.11
18,ATCAGCACGTGGGAGG,-0.19
19,CAGTGCACGTGGTGGC,-0.1
20,GTAGACACGTGTTATG,-0.08
21,TGGTTCACGTGTTCGT,0.25
22,GAAGGCACGTGGACGT,0.13
23,GTGGGCACGTGGTGCG,-0.15
24,TGCGGCACGTGATTTT,0
25,ACTTTCACGTGATAGT,0.23
26,AGTTACACGTGTGGCG,0.08

row,Sequence,relative binding free energy [kcal/mol]
1,GTTTTCACGTGCGGTG,0.41
2,TTTGACACGTGGTGTT,-0.02
3,TAGGTCACGTGGTACT,-0.06
4,CATGTCACGTGTCGGG,0.13
5,TATTGCACGTGGAGGT,-0.01
6,AGCATCACGTGGTTAG,0.11
7,GATAGCACGTGGTCGT,-0.06
8,CGTAACACGTGATAGG,0.2
9,TGAAGCACGTGGACGG,-0.12
10,GCGTGCACGTGGGAGC,-0.02
11,GGTGACACGTGACGGC,0.21
12,GTGCTCACGTGTGTTG,0.32
13,ATTTACACGTGCAAGG,0.2
14,CTTAGCACGTGTGGTC,-0.12
15,AGGGCCACGTGAGGTT,-0.05
16,TTCTGCACGTGTGAAT,0.07
17,AGCGTCACGTGGCGAG,0.03
18,TGATGCACGTGGTGGT,0.01
19,TTAAGCACGTGTCTGG,-0.16
20,TTGGGCACGTGAAGAG,0.16
21,TGATCCACGTGAGGGT,0.22
22,TAGGGCACGTGGTAGG,-0.24
23,GGTGACACGTGTTTAA,0.06
24,ATTTTCACGTGCTGCT,0.14
25,GGCGTCACGTGTTTCT,0.27
26,GTTTTCACGTGCTCTT,0.21

row,Sequence,relative binding free energy [kcal/mol]
1,GGATGCACGTGTCGGC,0.05
2,TGATACACGTGTTCTG,-0.08
3,GCAGGCACGTGGGATT,-0.15
4,TTTATCACGTGTACTA,0.18
5,TATATCACGTGGGATT,0.01
6,GGAGCCACGTGCGGTT,0.01
7,TTTCTCACGTGGGTAT,-0.05
8,CTATTCACGTGGGATT,0.1
9,TAAAGCACGTGTATGT,-0.15
10,AGGTGCACGTGTTGAG,0.02
11,GAGATCACGTGAGGAT,0.4
12,CTGGGCACGTGGGCCT,-0.17
13,CGGTTCACGTGAGGGA,0.3
14,AAAAGCACGTGGGGGT,-0.23
15,GCTGGCACGTGGTGAG,-0.05
16,TTGGCCACGTGCTTGG,-0.12
17,TTTGGCACGTGTAGTA,-0.11
18,TCTGGCACGTGGGGGG,-0.16
19,GATAGCACGTGCAAGG,0.08
20,GGAGGCACGTGCTTTG,-0.03
21,TCGCTCACGTGGGGTA,0.12
22,TGAAGCACGTGTATTT,0.09
23,TGAGTCACGTGGCGTC,-0.03
24,TGTGTCACGTGTCGTA,0.03
25,TGCCTCACGTGAGTTT,0.44
26,TTTACCACGTGGGAGT,-0.13

row,Sequence,relative binding free energy [kcal/mol]
1,TGATTCACGTGGTTAC,0.07
2,TTGCACACGTGTTATT,0.09
3,TTTGTCACGTGATGGA,0.25
4,TCGTGCACGTGGAGAG,0.04
5,TTGGTCACGTGAATCA,0.26
6,GTTAGCACGTGTGCAG,0.04
7,TCTCACACGTGTGGGT,0.1
8,GGTTTCACGTGCTTGA,0.25
9,AAGGGCACGTGCTGGT,-0.33
10,TAAGGCACGTGATCTT,-0.04
11,ATTTCCACGTGAGGGG,0.23
12,AAAATCACGTGTCTGG,0.45
13,TGAGGCACGTGATTAG,-0.07
14,GTTTTCACGTGGCAGA,0.36
15,GGAATCACGTGAGGCG,0.27
16,TCAGGCACGTGCATTG,0
17,ACGTTCACGTGGGGTT,0.1
18,GGGGGCACGTGGGCAA,-0.22
19,TATCGCACGTGAGGAT,0.29
20,CAGTTCACGTGTGTAG,0.23
21,AGGTGCACGTGTTTCT,-0.09
22,TTGTACACGTGGAGGG,-0.05
23,CGGGGCACGTGCGCGT,-0.31
24,CTGATCACGTGGGGTG,-0.13
25,GGTTCCACGTGTTCGG,0.12
26,TATTACACGTGGGGTG,-0.07

row,Sequence,relative binding free energy [kcal/mol]
1,TCGGGCACGTGCGTTA,-0.02
2,ATTTCCACGTGTTTTG,0.02
3,GTGGTCACGTGATTAT,0.33
4,TTGTACACGTGTCGCG,0.12
5,AGGTTCACGTGTAAGA,0.24
6,ATGGTCACGTGGGTAG,-0.06
7,ATAGGCACGTGACAGT,-0.01
8,AGTAACACGTGCGAGG,-0.01
9,GTTGCCACGTGGTGAA,0
10,AGCGACACGTGGTTAT,0.11
11,CGCGTCACGTGGTTTT,0.19
12,TCAGGCACGTGCTGTT,-0.22
13,GTTACCACGTGGGTCG,0.04
14,TTAATCACGTGTTAAT,0.19
15,TTGGGCACGTGTGGCA,0
16,ATGCCCACGTGTGTGG,-0.11
17,TGTGGCACGTGGTGAA,-0.04
18,AGGAACACGTGAGTTG,0.3
19,GGGTGCACGTGATCTT,0.11
20,GTAGACACGTGGTGCT,0.19
21,AGTCGCACGTGTAGGG,0.01
22,CACGGCACGTGAGGGG,0.16
23,ATTCGCACGTGCAGGG,-0.04
24,TTTCGCACGTGGTGAA,-0.11
25,GGGGCCACGTGTGCCG,0.02
26,AACGTCACGTGTTTGG,0.02

row,Sequence,relative binding free energy [kcal/mol]
1,ACGAGCACGTGGTAGG,-0.28
2,TTATACACGTGAAAGT,0.34
3,TCATGCACGTGATATT,0.18
4,GATCTCACGTGTAAGG,0.33
5,AGATTCACGTGTTAGG,0.22
6,CTTGTCACGTGGGCGG,-0.1
7,TAATGCACGTGATCGT,0.05
8,TTTTGCACGTGTTTTT,0.04
9,CTGTTCACGTGTGGTC,0.3
10,GTATGCACGTGGGCGC,-0.24
11,TTTGTCACGTGCGTGT,0.01
12,TGAAGCACGTGGAGAG,-0.11
13,CGCAGCACGTGTTGGA,0.02
14,TAATGCACGTGGAATG,0
15,GAATGCACGTGTTAGG,0.07
16,GTGAGCACGTGTGGTT,-0.02
17,TTATTCACGTGCTATG,0.09
18,TGGAACACGTGAGGAT,0.25
19,GGTGGCACGTGGCTAG,-0.14
20,AGTTACACGTGTGGGA,0.18
21,TAATTCACGTGGTAAG,0.27
22,TTGTTCACGTGTATAG,0.28
23,TCTGACACGTGGGGAA,-0.11
24,TTGTGCACGTGTGCCG,0.04
25,ATTTACACGTGTTTTA,0.21
26,TGTTTCACGTGTACTA,0.35

row,Sequence,relative binding free energy [kcal/mol]
1,AGGCTCACGTGTTTTT,0.28
2,TTAGACACGTGGGAAG,-0.02
3,AGATTCACGTGTTAGA,0.29
4,TTGTTCACGTGTAAGT,0.4
5,AAGTTCACGTGGCGTT,0.12
6,AGAAACACGTGTGGGG,0.05
7,TTTGACACGTGCAGTG,0.04
8,AATATCACGTGTTGTG,0.09
9,ATATTCACGTGTTTGG,0.15
10,GATTACACGTGGTTTA,0.03
11,GGAGGCACGTGACGGT,-0.02
12,ATCTACACGTGGGGGT,0.06
13,CAGGGCACGTGGTATG,-0.33
14,AGTCGCACGTGGTGCG,-0.16
15,TATGGCACGTGTAAAA,0.08
16,GGTAGCACGTGTTTAA,-0.02
17,TAGTTCACGTGATCTG,0.37
18,TAGGGCACGTGTATTT,0.06
19,AGGTGCACGTGAACGG,0.24
20,CATTGCACGTGTGTTA,-0.07
21,GGTTTCACGTGTCGCG,0.41
22,ATGAGCACGTGTGTGT,-0.08

# From the BET-seq Pho4 binding data (Le et al. 2018)
